Assay [1] relates to HAP1 CDK12 C1039S/CDK13 C1017S double mutants cells. In words: Anti-proliferative activity, HAP1 CDK12 C1039S/CDK13 C1017S double mutant cells (CellTiter-Glo). To be noted: 72 hrs, mutant vs WT. Type of assay: cell-based. The method, then: Select compounds described herein were evaluated for anti-proliferative activity. HAP1 WT and CDK12 C1039S/CDK13 C1017S double mutants cells were seeded at a density of 12,000 cells/well in 96-well plates. Twenty-four hours later cells were then treated with compound BSJ-01-175-1 in a 10-pt dose escalation format from 1 nM to 10 μM or DMSO control for 72 hrs. After 72 hrs, cells were assayed using CellTiter-Glo Luminescent Cell Viability Assay (Promega) to determine cell viability by measuring the amount of ATP present in each sample cell population, which is an indicator of cell metabolic activity. Results are graphed as fraction of the DMSO control at 72 hrs. All data points were performed in biological triplicate.

A further assay addresses CDK12 (Homo sapiens, UniProt Q9NYV4). The assay can be described thus: Mass spectrum labeling of CDK12. As to conditions: 5-fold excess of compound, 1 hour, room temperature. Type of assay: binding.
The target in the next assay is T1, CDK7-cyclin H complexes (Homo sapiens, UniProt P50613).
T1 construct: endogenous in cells; host or cells: Jurkat
The assay can be described thus: THZ1-biotin pull-down from treated Jurkat cells, western blot for cyclin H. Type of assay: cell-based. As to conditions: 1 μM compound, 6 hrs, lysate with 1 μM THZ1-biotin. Background: A western blot detects proteins with antibodies after separation by electrophoresis.

Assay [2] concerns CDK12-cyclin K or CDK13-cyclin K complexes. To be noted: Jurkat cells, 1 μM compound, 6 hrs; lysate with 1 μM THZ1-biotin.

Structures are written as SMILES.

As for `CN(C)C/C=C/C(=O)Nc1ccc(O[C@@H]2CCC[C@@H](Nc3ncc(Cl)c(-c4c[nH]c5ccccc45)n3)C2)cc1` [BSJ-01-175, (E)-N-(4-((1R,3R)-3-(5-chloro-4-(1H-indol-3-yl)pyrimidin-2-ylamino)cyclohexyloxy)phenyl)-4-(dimethylamino)but-2-enamide], the “Sensitivity of HAP1 CDK12 C1039S/CDK13 C1017S mutant cells compared to control WT HAP1 cells” value was “approximately half as sensitive” in assay [1] (listed as BSJ-01-175-1) and “partially rescued” in assay [1] (listed as BSJ-1-0175-1). For the same molecule, the “Mass spectrum labeling of CDK12” value at CDK12 was “able to label CDK12”.
As for `CN(C)C/C=C/C(=O)Nc1ccc(N2CCC[C@@H](Nc3ncc(Cl)c(-c4c[nH]c5ccccc45)n3)C2)nc1` [BSJ-02-108, (R,E)-N-(6-(3-((5-chloro-4-(1H-indol-3-yl)pyrimidin-2-yl)amino)piperidin-1-yl)pyridin-3-yl)-4-(dimethylamino)but-2-enamide], on CDK7-cyclin H complexes, the “Cyclin H pulldown with THZ1-biotin (binding of intracellular CDK7-cyclin H complexes)” value is listed as “loss in cyclin H pulldown”. For the same molecule, in assay [2], the “Cyclin K pulldown with THZ1-biotin (binding of intracellular CDK12/13-cyclin K complexes)” value (“Cyclin K pulldown with THZ1-biotin” below) is “loss in cyclin K pulldown”.
Turning to `C=CC(=O)Nc1ccc(N2CCC[C@@H](Nc3ncc(Cl)c(-c4c[nH]c5ccccc45)n3)C2)nc1` [BSJ-02-109, (R)—N-(6-(3-((5-chloro-4-(1H-indol-3-yl)pyrimidin-2-yl)amino)piperidin-1-yl)pyridin-3-yl)acrylamide], the “Cyclin K pulldown with THZ1-biotin” value in assay [2] is given as “loss in cyclin K pulldown”.
Regarding `C=CC(=O)Nc1ccc(N2CCC[C@@H](Nc3ncc(Cl)c(-c4c[nH]c5ccccc45)n3)C2)cc1` [BSJ-02-139, (R)—N-(4-(3-((5-chloro-4-(1H-indol-3-yl)pyrimidin-2-yl)amino)piperidin-1-yl)phenyl)acrylamide], at CDK7-cyclin H complexes, the “Cyclin H pulldown with THZ1-biotin (binding of intracellular CDK7-cyclin H complexes)” value is “loss in cyclin H pulldown”. The “Cyclin K pulldown with THZ1-biotin” value in assay [2] is “loss in cyclin K pulldown”.

The values above are taken from patent US11932625B2, “Inhibitors of cyclin-dependent kinase 12 (CDK12) and uses thereof” (Dana-Farber Cancer Institute, Inc., priority 2016, dated 2024).
